Hit rate of the full screen: of about 320,000 compounds, about 9,100 (2.8%) were called active. The shares of active, inactive and inconclusive entries below differ from those in the screen. Calls come from the whole dose curve; as a rule, active = well fitted activation curve with a large enough effect; inconclusive = small, poorly fitted or top-dose-only effect; inactive = no such curve, though single readings can be large or run the other way. Potencies of inconclusive entries are left out as doubtful fits.
Assay: qHTS Assay for Rab9 Promoter Activators; note: nearly all actives have a fitted effect of over 60% in size
Conditions: Huh7 Rab9 promoter-luciferase reporter, luminescence, 24 h; series mostly up to 9.22 µM
How it was run: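 Quantitative HTS format; Huh7 Rab9-luciferase reporter cells (1500/well) receive compound 2 h post-plating, incubate 24 h at 37 °C, then get luciferase reagent for 10 min before luminescence reading.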
Potency is the fitted concentration of half-maximal effect; tags give direction and shape of the fitted curve.

| SMILES | Potency |
| --- | --- |
| C/C(=N\NC(=S)NC1CCCCC1)c1ccccc1 | inconclusive [activator, full curve, poor fit] |
| CCOc1cccc(/C=C/c2ccc3cccc(O)c3n2)c1O | inconclusive [activator, single point] |
| O=C(CSc1ccc(-c2ccccn2)nn1)c1ccccc1 | inconclusive [activator, single point] |
| COc1ccc2c(c1OC)C(=O)N(c1ccc(C)cc1)C2=O | inconclusive [activator, single point] |
| COc1cccc(NC(=O)Nc2ccccc2Br)c1 | inconclusive [activator, partial curve] |
| Nc1nc(CSCCO)nc(Nc2ccccc2)n1 | inactive |
| O=C(Nc1ccc(Cl)cc1Cl)c1cc2ccccc2o1 | active: 1.58 µM |
| CC(/C=C/c1ccco1)=N\NC(=O)c1cc(Cl)ccc1O | inconclusive [activator, single point] |
| CCOC(=O)c1c(CSc2ccccc2)n(C)c2ccc(O)cc12 | inactive |
| COc1cccc(NC(=S)NC2CC(C)(C)NC(C)(C)C2)c1 | inactive |
| Cn1ccnc1SCC(=O)Nc1ccc2ccccc2c1 | active: 1.58 µM |
| CN=c1scc(C)n1/N=C/c1ccc(O)cc1O | active: 0.708 µM |
| CCOc1cc(C(=O)Nc2ccc(S(=O)(=O)N3CCOCC3)cc2)cc(OCC)c1OCC | inconclusive [activator, single point] |
| CC1(C)Cc2c(sc3c2c(=O)n(Cc2ccccc2)c2nncn32)CO1 | inactive |
| COC(=O)c1[nH]c2cc(C)ccc2c1NC(=O)CN1CCN(c2ccccc2OC)CC1 | inactive |
| CN(C)c1ccc(/C=C/c2ccncc2)cc1 | inconclusive [activator, single point] |
| Cc1ccc(-c2cn3cc(C)ccc3n2)cc1 | inconclusive [activator, partial curve] |
| C=CCN(C(=O)c1oc2c(Cl)cc(C)cc2c1C)C1CCS(=O)(=O)C1 (configuration not stated) | active: 3.55 µM |
| O=C(Cc1cccs1)N/N=C/C=C/c1ccccc1 | inconclusive [activator, partial curve] |
| N#Cc1ccsc1NC(=O)COC(=O)C1=NNC(=O)CC1 | inactive |
| O=C(CSc1nnc2ccccn12)Nc1ncc(Cl)cc1Cl | inconclusive [activator, partial curve] |
| CCOC(=O)CC1COCCN1Cc1cn[nH]c1-c1cc(OC)c(OC)c(OC)c1 (configuration not stated) | inactive |
| COc1cc(/C=C/c2nc3ccccc3s2)cc(OC)c1O | inconclusive [activator, single point] |
| Cc1occc1-c1nnc(SC(C)C(=O)Nc2ccccc2F)o1 (configuration not stated) | active: 2.82 µM |
| Cc1ccc2sc(-c3ccc(NC(=O)/C=C\C(=O)O)cc3)nc2c1 | active: 2.82 µM |
| Clc1cc(Cl)c2nc(N3CCOCC3)sc2c1 | inconclusive [activator, single point] |

| SMILES | Potency |
| --- | --- |
| O=C(C(c1ccccc1)c1ccccc1)N1CC[C@@]2(O)CCCC[C@H]2C1 | inactive |
| COCc1nc2ccccc2n1Cc1ccc(Br)cc1 | inconclusive [activator, single point] |
| Cc1cc(/C(N)=N/OC(=O)Nc2ccccc2)no1 | inconclusive [activator, single point] |
| O=C(NCCN1C(=O)S/C(=C\c2ccc(F)cc2)C1=O)c1cccc(S(=O)(=O)N2CCOCC2)c1 | inconclusive [activator, single point] |
| Cc1[nH]n(-c2ccc(Cl)cc2)c(=O)c1N=Nc1cccnc1 | inconclusive [activator, single point] |
| CCOC(=O)c1c(N)sc2c1CCC(CC)C2 (configuration not stated) | inactive |
| O=C(CCSc1ccccc1)N1CCCC1 | active: 2.82 µM |
| O=[N+]([O-])c1cccc(-c2csc(Nc3ccccc3)n2)c1 | inconclusive [activator, single point] |
| Clc1cc2nc3ccccn3c2cc1Cl | inconclusive [activator, single point] |
| COc1ccc(-c2csc(-n3ncc(C(=O)O)c3C(F)(F)F)n2)cc1 | inconclusive [activator, single point] |
| CN(C(=O)/C=C/c1cnc2ccccc2c1)C1CCCCC1 | active: 1.12 µM |
| Clc1ccc(C2=Nc3cc(Cl)ccc3OC2)cc1 | inconclusive [activator, single point] |
| Cc1ccccc1NC(=O)c1cn(-c2ccccc2)nc1-c1ccccc1 | inactive |
| O=[N+]([O-])c1nn(-c2ccc3c(c2)OCCO3)n(O)c1=NCCC1=CCCCC1 | active: 3.55 µM |
| COc1ccc(/C=C/c2ccc3c(Br)ccc(O)c3n2)cc1 | inconclusive [activator, single point] |
| CCSc1nnc(NC(=O)CSc2nc3c(cc2C#N)CCCC3)s1 | active: 3.16 µM |
| CCOc1ccc(NS(=O)(=O)c2ccc3[nH]cc(C(=O)N(CC)CC)c(=O)c3c2)cc1 | active: 0.398 µM |
| CC/C(=N\Nc1nncc2ccccc12)c1ccc(F)cc1 | inconclusive [activator, partial curve] |
| Cc1cccc(NC(=O)Cc2c(F)cccc2Cl)n1 | active: 3.16 µM |
| COc1ccc(-n2nc3cc(C)c(N)c(Br)c3n2)cc1 | active: 1.26 µM |
| NC(=O)c1ccc(NC(=O)COC(=O)CCN=C2NS(=O)(=O)c3ccccc32)cc1 | inactive |
| O=C(NC(=S)NCCc1ccccc1)c1ccco1 | inconclusive [activator, partial curve] |
| c1ccc(-n2ncc3c(NCc4cccs4)ncnc32)cc1 | active: 2 µM |
| CN(C)c1ccc(NC(=O)c2ccc3nc[nH]c3c2)cc1 | inconclusive [activator, partial curve] |
| Cc1cc(/C=C2/NC(=O)NC2=O)c(C)n1-c1ccncc1 | inactive |
| O=C(Nc1cccc(C(=O)O)c1)Nc1ccc2c(c1)OCO2 | inconclusive [activator, full curve, poor fit] |

From PubChem BioAssay AID485297 (National Center for Advancing Translational Sciences (NCATS), 2010)
